Data published in the RNAGym collection of RNA variant scans (doi:10.7554/elife.90254).
The source gives no read counts; variants with many changes may rest on few reads.

B1: LINE1-full (parent)
chain: UACGUAGGUGGUUUUCCCCUGAUAGUGCUAAGGGGGCCUGGAAGUUUGGACUGGGCAGAGCUCAACACAGCGUGGCAAAGUGGCUGUGGCUAGACUGCCUCUCUGGAUUCCUCGUCACUCAGCAGGGCAUCUCUGAGAGAAAUGCC

Variants of: B1
Assay: self-cleavage, relative activity (ratio to wild type); higher = more cleavage; in vitro, sequencing; the parent is a self-cleaving ribozyme

Row | Variant | self-cleavage
1 | G44U A57U U112C | 0
2 | U45A U46C U87A A138G | 0.14
3 | A43G U119G A140G | 0.4
4 | A42G U47C U109A | 1.02
5 | U45C A94G G105A U132C | 0.25
6 | U45A U109A A141G | 2.07
7 | U45A U85C G93U U112A | 0.08
8 | A42G A107U U132A | 1.53
9 | A42G U62C U102C | 0
10 | A43G U96C U100C U109C A136U | 0.48
11 | A42G U62C A77C | 0
12 | U45C A94G U132C A138U | 0.66
13 | A43G U47A C84U A140G | 0.06
14 | A42U U104C U143A | 1.83
15 | A43C U45A U46C U96A | 0.28
16 | G44A G105A U119C A136G A138G | 2.14
17 | U45C A78U A79G | 0.63
18 | A42G U47A U100C | 1.51
19 | A42G U62C A79G | 0
20 | A43G A77U A141G | 1.41
21 | A43G G55A A59G C61U U91C A92G | 0
22 | A42U A43G A121U U130C | 1.7
23 | U45C A79G U85A | 0.06
24 | A43G G75A U87C G97A U130C A138G | 0.05

Row | Variant | self-cleavage
25 | A43G U46C A129G | 1.27
26 | A43G A64U A78G | 0.34
27 | A43G A50G A78G | 0.12
28 | A43G A57G C66U U109A | 0.09
29 | A42G U47A A124G | 0.7
30 | A43U C61G A65C G135U | 0.18
31 | A42G G72A A92G A117G U132C | 1.31
32 | A43G U62C A121U | 0.19
33 | A43G U62C A121G | 0
34 | A43G A124G U130A | 0.8
35 | A42G G86A A138G | 0.09
36 | A43G U108A A138U | 1.1
37 | A43G A65G A136G | 0
38 | A42G C98U A129U | 0.56
39 | A42G A78G G97U A124U | 0.1
40 | G44U A67G U85A A107G A121G A140G | 0
41 | A42G U102C U112A | 2.63
42 | G44A G60A A78G U109C U134C | 0.03
43 | A43G G55A A77G | 0.1
44 | G44U U73C U96C A129U A141G | 0.14
45 | A43G A59G U102C | 0
46 | A43G A57G A136G | 0
47 | U45C A136G A142G | 2.19
48 | U45C A121U A138G | 1.47

Row | Variant | self-cleavage
49 | A43G G54A A78G | 0.19
50 | A43G A69G A79G A124U | 0
51 | A43G C113U C131G A138G | 0.86
52 | A43G U45A A79G G126A | 0.87
53 | A43G A77G G114A A140G | 2.45
54 | A42G U52C C128U | 1.94
55 | A43G A94U U132C | 0.21
56 | A42G U102A U130C | 2.43
57 | A43U A77U C110U A136G | 1.22
58 | A42U G126U U130C | 0.66
59 | U45A A77G U85C | 0.16
60 | A43G U96A A121U | 0.02
61 | A43G A65U U108C A124G | 0.75
62 | U45C A57U U108C G126A | 0.02
63 | A43G G60C U108C | 0.06
64 | A43G A107G G127U | 1.15
65 | A42U U81A A142G | 1.21
66 | U45C A59G U62A A64G C145A | 0
67 | U45A A65G U73C | 0.19
68 | U45C A64G A78G A121C | 0
69 | A43G A57G A65G G144U | 0.51
70 | A43U A79G U112A | 0.98
71 | A43G U47A G125A | 0.56
72 | A42U U100C A142G | 0.46

Row | Variant | self-cleavage
73 | A43G A79G U102C U119C A142G | 0
74 | A43G U62A U87A A121U U130A | 0.05
75 | A43G C71A A117G A138G | 0.41
76 | A43G U47C A141U | 1.76
77 | U45C A64C U73A A129U U134A | 0.1
78 | A42U C56U A124G C131U | 0.1
79 | A43G U47A U100A | 1.1
80 | A43U U46C U109C A124C | 1.31
81 | U45A U85A U132C | 0.15
82 | A43G A79U U81C U85A A107G | 0
83 | A42G U62C U73A | 0.05
84 | U45A G54A A69U U96A | 0.02
85 | A42G U96C A124G | 0.27
86 | A43G A92G U143C | 0
87 | A42G U45A U100C | 2.12
88 | A43G U47A A57C A124G A140U | 0.27
89 | G44A A92G A94G | 0.07
90 | A42U A69G U143A | 0.34
91 | A43G C103A U115A A140G | 0.85
92 | A43G A57G U109C | 0.32
93 | A43G U91C A129U | 0.29
94 | A42U C90A U134C C146U | 0.02
95 | A43G A78G A79U A140U | 1.08
96 | A42G U47C A69U C101U C120U U134C | 0.02

Row | Variant | self-cleavage
97 | A42U U45C G72U | 1.06
98 | A42G U85C U104A | 0.15
99 | U45C A78U U108C U109A | 2.04
100 | U45C A94U U112C | 0.23
101 | A43U U45C U100C U132C | 1.75
102 | U45C A79G U143C | 1.46
103 | U45A C66U G74U A117U | 0.02
104 | A42U A65U U85C C90A U104G U115C | 0
105 | A42G U46C C103U | 1.88
106 | A43G G75A A117G | 1.09
107 | A42G G82A A117G A121G | 2.3
108 | A42G U52C A92G | 0
109 | A43U A57G U62C U73C A129U | 0
110 | A42G U100A U130C | 1.25
111 | A43G A65G G126C | 0
112 | A43G U52A C110A | 1.59
113 | U45A A57G G72A A107G A129G A140G | 0.13
114 | A42G U85C U143C | 0.36
115 | U45A A69U U87A U119C | 0.03
116 | A42U U96A A117U | 0.04
117 | A43C U45A A138G | 1.41
118 | A43G A107G U108C | 0.92
119 | U45A G80A A141G | 1.85
120 | U45C A121G A141G A142G | 0.98

Row | Variant | self-cleavage
121 | A42U A107G A140G | 1.27
122 | A43G A65U U108C A140G | 0
123 | U45A A57G A121U | 0.84
124 | A43G U52A A69G | 0.3
125 | A43G U96A G139A | 0.13
126 | A43G A94G U143A C145A | 0.33
127 | G44U U45C U46C U62C U130A G144A | 0.01
128 | A43G A65U A94G | 0.11
129 | A43C U87A A129G | 0
130 | U45A A107U A121U | 1.5
131 | U45A A65U G122A | 0.05
132 | A43G U62C G82A | 0.04
133 | A43U A79C A94G A117G G127A | 0
134 | A42G G54U U108C | 1.43
135 | A43G U96C U130C | 0.13
136 | G44U A78G U143C | 1.17
137 | U45A U102C U119C | 2.45
138 | A43G U45A A57G | 0.72
139 | A43G A57C G89A U109A | 0.05
140 | A43G U62C A124C C131U A140G | 0
141 | A43G A64U A65U G97A U134C | 0.06
142 | A42G U52C U143A | 1.64
143 | A42G U62A C128G | 0.02
144 | A42G U47C C68U | 0.14

Row | Variant | self-cleavage
145 | A43G G83A A140U | 0.76
146 | A43G A65G U109C | 0.18
147 | A43G U52A C66U C84G | 0.16
148 | A42G A136G U143C | 1.89
149 | A42G U46C C99U A121G | 0.95
150 | U45A U104C U130A A141G | 1.15
151 | A43G U46A A77U U119C | 1.37
152 | A42G U73A A92U A94G C103A G114A A140G | 0.16
153 | U45C A67G A77U U81C | 0
154 | A43U U46C A64G | 0.38
155 | A42G U46C A129G | 0.42
156 | A42G U46A U85A | 0.12
157 | A42G U104C U132A G144A | 1.49
158 | A42G U104C U132C | 1.31
159 | A42U G93A U96C U108A G144A | 0.04
160 | U45A A136U A142G | 1.3
161 | A42U U62A A94U A117G G126C | 0
162 | A43G U85A C116U | 0.05
163 | A42G U62C U143A | 0.07
164 | U45A G89A A141G | 0.05
165 | A42G U47G G126U | 1.19
166 | A43G U108C A117C | 2.04
167 | A43G U87A C131U | 0.12
